± gives the standard deviation of the averaged measurements. The list shows a part of the results.
Tested on: PfAP2-EXP AP2 domain (GST-tagged)
Assay: gcPBM binding intensity (ln(normalized median fluorescence intensity)); higher = stronger DNA binding
Summary of the method: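 Binding intensity is the highest Masliner-normalised natural-log median intensity over replicate spots in either probe orientation. To obtain it, GST-tagged P. falciparum DNA-binding domains made in E. coli were incubated for 1 h on an Agilent 4 × 180k array of primer-extended double-stranded 36-bp intergenic genomic probes plus negative controls. Detection used Alexa488 anti-GST antibody with scanning at 488 nm.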

Sequence | gcPBM binding intensity (ln)
TTTTTTTTTTATACATGTACTTAAAAGTAGCACCTT [XGTACX_site1855] | 8.73 ± 0.37
TGATTCAATTTATGCACACTAAAAATTAATTATATT [CACACA_site271] | 8.435 ± 0.035
GACATTAATTATTTGACACACGACTGGGTGGTGATT [CACACA_site306] | 8.44 ± 0.47
TTTGTAAAAGGTCATACACACATATTCAAAAGAAGT [CACACA_site2947] | 8.79 ± 0.35
ATTATATATACAACAAGTACAAAAGAAAAATATTAT [XGTACX_site2914] | 8.82 ± 0.49
TATAAATACATCCTATACTTCTCTTTTACAGTTTTA [CACACA_negctrl_site1283] | 8.71 ± 0.37
TTTTATGTTTTTTTTATAAATATTAAAATTCTATAT [CACACA_negctrl_site1477] | 8.28 ± 0.3
ATATATATATATAATTGTACATTTTTAACCTTAACA [XGTACX_site7910] | 9.97 ± 0.17
AATGTTAAAAATGAAAGTACATGGAATTTATTATTT [XGTACX_site4095] | 8.38 ± 0.23
ATATTGTTATATGTTTGTACATATTTTTTATATTTT [XGTACX_site6834] | 8.93 ± 0.91
AAAAAAAAAAAATACACACACACATATAAATATGTA [CACACA_site6900] | 8.27 ± 0.6
GTTTATATATGCTTATAATTTTCAATTGTTTTACAA [TGCATGCA_negctrl_site384] | 8.63 ± 0.4
TGTGTGGATATATGTATGCACTACCCTTTGGGTCAT [GTGCAC_site9506] | 8.41 ± 0.18
ATATATTGAACCTATGCATGTAAAATATATGTAATA [TGCATGCA_site644] | 8.72 ± 0.39
AAATATTAAATGGAAAACAAATATATATATCTTAAT [XGTACX_negctrl_site383] | 8.56 ± 0.38
ATATATATATATAGGAGTACATGAAATACTTAAAAA [XGTACX_site8851] | 10 ± 0.21
AAAAAAGAAATAATCAAATAAATAAAAAAGATGAAT [XGTACX_negctrl_site607] | 8.84 ± 0.59
GTGTGAAGATATAAATGCATTTTTTTATACATTTTC [CACACA_negctrl_site117] | 8.55 ± 0.38
TGTAAGTATTCTTGAGGTACACATATAAATATAGTA [XGTACX_site3207] | 8.33 ± 0.33
AATATTATATAATAAAGTACATATATATTCATATTT [XGTACX_site7204] | 8.26 ± 0.28
TATTTATACATACGTACACACAAATATTAAAATATA [CACACA_site7004] | 8.69 ± 0.4
TTTTTTTTTTTCTCCATACACACTTGATAAAACTTT [CACACA_site615] | 8.67 ± 0.52

Sequence | gcPBM binding intensity (ln)
ATTTTTTTTTTTTGTACATACCACATATACAAAACA [CACACA_negctrl_site1240] | 8.79 ± 0.35
TAATTGATTCTTCACCGTACTCACACATATATATAT [XGTACX_site6530] | 9.61 ± 0.14
CACACCACCAACAAAAGTACATACATATATATATAT [XGTACX_site5781] | 10.2 ± 0.68
TATATATTGCCCTTCACACACACACCCATATATATA [CACACA_site2493] | 9.06 ± 0.42
ATATATTATAAATGTAGTACCGTTACATAGTCATAG [XGTACX_site390] | 8.76 ± 0.41
ATCAAGCACGAACACACACACACACGCACGCCCACA [CACACA_site6308] | 8.85 ± 0.57
ACTACGAGTCGTAGAGTGCAGTCTGGAGAAAAGTAC [GTGCAC_site9769] | 9.35 ± 0.42
TTTTGATTTTTTTATTGTACCCATAAACATATAATT [XGTACX_site5202] | 8.69 ± 0.24
GGTATTTATGGACGCGTGCACACACATATGAACAAA | 9.02 ± 0.3
TACAAACAATTAAACAAACACACATATACATGTATA [CACACA_site2061] | 8.59 ± 0.35
TATTTTTGAAGTTGCACACACAAAAATAAAAAGTAT [CACACA_site418] | 8.69 ± 0.39
ATATTTACTCACGTCTTGCACTGAGCAAGCATTATA | 8.63 ± 0.29
TCATGTTTTTAATATTGTACTCTCATTTTATATATC [XGTACX_site8412] | 8.64 ± 0.28
AGCTATTAATTTATTACATGCAAGATTAAAAGACTA [TGCATGCA_site281] | 8.87 ± 0.23
CTATCAAATAATAGCAAACACACAAAAAATAAAAAA [CACACA_site4147] | 8.62 ± 0.45
AAAAAAAAAAAAAAATCACACATTGGTTAAATATTA [CACACA_site5344] | 8.2 ± 0.43
ATTCATACATGCACACGTACATATTTAAATATAAAA [XGTACX_site8388] | 8.91 ± 0.38
ATTTTTTATGAAAACATAAAAAAATGAGATAACCAT [CACACA_negctrl_site894] | 8.53 ± 0.41
AAAAAAAAAAGACACACACACACACGGACACATACA [CACACA_site7363] | 8.84 ± 0.52
TATAAATCTATAAATGCACACAAGGGAAGAAAAACG [CACACA_site2965] | 9.29 ± 0.42
AAAGAACAAATAAAACATAAAATAATATATATAGAT [CACACA_negctrl_site1764] | 8.88 ± 0.3
TATTATTCCAAGAAAAAAAAAAATAAAAAAAAAAAA [CACACA_negctrl_site1424] | 8.23 ± 0.39

Reference: the supplement of paper PMC11417369
